Reference: the supplement of paper PMC7826260
The other results are listed elsewhere or left out. One pool of 16,384 single-stranded DNAs met each Rep nickase domain in vitro for 1 h at 37 °C with 3 µM enzyme; only the middle of the 90-letter strands is printed. Uncut reads are compared with the no-enzyme pool on a log2 scale; more negative means more cut, near 0 not cut, and no call is made. Because reads are shares of a total, they shift together; values above 0 arise when much of the pool is cut.

Experiments:
Assay in all cases: uncleaved DNA left, log2 of reads against the no-enzyme library (log2 ratio); higher = less cleavage (more negative = more Rep cleavage of the k-mer); sequences stand for … in CTCGTCCG…ACCGGAGA
[1] = test system: T1, Rep nickase domain of Muscovy duck circovirus
T1 sequence (residues 1-111 of Rep, tag left off): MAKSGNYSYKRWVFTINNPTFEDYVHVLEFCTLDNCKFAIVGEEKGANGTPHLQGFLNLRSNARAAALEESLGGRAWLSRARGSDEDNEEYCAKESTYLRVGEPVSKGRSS
Protocol: (§1)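 A pool of 90-nt single-stranded DNAs with seven random bases just before the constant AC of the nick site (name = the seven bases) was cut by 3 µM recombinant His6-SUMO-tagged Rep nickase domain (300 nM DNA, 50 mM HEPES pH 8.0, 50 mM NaCl, 1 mM MnCl2, 1 h, 37 °C, three replicates). Uncut DNA was amplified and sequenced.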

[2] = test system: T2, Rep nickase domain of banana bunchy top virus
T2 sequence (residues 1-94 of Rep, tag left off): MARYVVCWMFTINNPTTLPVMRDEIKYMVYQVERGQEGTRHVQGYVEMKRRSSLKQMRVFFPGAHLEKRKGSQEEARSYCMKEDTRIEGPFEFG
Protocol: as §1

[3] = test system: T3, Rep nickase domain of cabbage leaf curl virus
T3 sequence (residues 1-116 of Rep, tag left off): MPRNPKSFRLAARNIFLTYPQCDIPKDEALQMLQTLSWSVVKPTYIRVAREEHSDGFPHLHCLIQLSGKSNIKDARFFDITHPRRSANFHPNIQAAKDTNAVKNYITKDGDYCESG
Protocol: as §1

[4] = test system: T4, Rep nickase domain of chickpea chlorotic dwarf virus
T4 sequence (residues 1-124 of Rep, tag left off): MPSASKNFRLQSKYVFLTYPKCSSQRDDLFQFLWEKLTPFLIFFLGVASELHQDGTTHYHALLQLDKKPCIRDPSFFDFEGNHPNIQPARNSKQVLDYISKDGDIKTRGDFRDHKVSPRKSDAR
Protocol: as §1

[5] = test system: T5, Rep nickase domain of faba bean necrotic yellows virus
T5 sequence (residues 1-98 of Rep, tag left off): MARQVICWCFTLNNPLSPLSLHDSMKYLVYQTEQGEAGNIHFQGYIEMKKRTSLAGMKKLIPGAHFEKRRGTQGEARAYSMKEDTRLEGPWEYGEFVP
Protocol: as §1

[6] = test system: T6, Rep nickase domain of maize striate mosaic virus
T6 sequence (residues 1-117 of Rep, tag left off): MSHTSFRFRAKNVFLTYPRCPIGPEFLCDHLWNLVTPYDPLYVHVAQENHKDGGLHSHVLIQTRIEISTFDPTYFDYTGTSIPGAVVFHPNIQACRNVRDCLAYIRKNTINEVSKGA
Protocol: as §1

[7] = test system: T7, Rep nickase domain of porcine circovirus 2
T7 sequence (residues 2-116 of Rep, tag left off): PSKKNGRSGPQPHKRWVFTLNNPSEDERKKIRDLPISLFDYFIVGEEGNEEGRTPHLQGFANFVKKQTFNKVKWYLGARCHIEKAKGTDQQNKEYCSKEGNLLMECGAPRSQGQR
Protocol: as §1

[8] = test system: T8, Rep nickase domain of tomato golden mosaic virus
T8 sequence (residues 1-124 of Rep, tag left off): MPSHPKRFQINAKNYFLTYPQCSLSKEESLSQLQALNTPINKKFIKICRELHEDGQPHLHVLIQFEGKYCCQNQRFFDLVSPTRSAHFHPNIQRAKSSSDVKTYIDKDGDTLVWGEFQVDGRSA
Protocol: as §1

[9] = test system: T9, Rep nickase domain of tomato yellow leaf curl virus
T9 sequence (residues 1-136 of Rep, tag left off): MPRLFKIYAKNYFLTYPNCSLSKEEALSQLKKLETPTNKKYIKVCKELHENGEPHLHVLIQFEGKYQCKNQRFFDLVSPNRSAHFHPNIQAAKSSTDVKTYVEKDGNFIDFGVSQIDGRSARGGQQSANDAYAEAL
Protocol: as §1

[10] = test system: T10, Rep nickase domain of wheat dwarf virus
T10 sequence (residues 1-137 of Rep, tag left off): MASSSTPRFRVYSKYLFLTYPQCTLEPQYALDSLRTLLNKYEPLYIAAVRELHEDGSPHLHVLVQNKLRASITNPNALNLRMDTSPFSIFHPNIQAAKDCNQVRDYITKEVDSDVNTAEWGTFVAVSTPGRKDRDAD
Protocol: as §1

Sequence | uncleaved DNA left (log2) [1] | uncleaved DNA left (log2) [2] | uncleaved DNA left (log2) [3] | uncleaved DNA left (log2) [4] | uncleaved DNA left (log2) [5] | uncleaved DNA left (log2) [6] | uncleaved DNA left (log2) [7] | uncleaved DNA left (log2) [8] | uncleaved DNA left (log2) [9] | uncleaved DNA left (log2) [10]
TGCTTAA | 0.219 | 0.109 | 0.168 | -0.0163 | 0.0576 | -0.175 | 0.0795 | 0.0989 | 0.254 | 0.125
GCACGTC | -0.0298 | 0.0248 | -0.124 | -0.00203 | -0.0206 | -0.478 | -0.0859 | -0.015 | -0.0795 | -0.025
TTGGTCC | 0.0181 | 0.0754 | 0.246 | -0.172 | 0.0264 | -0.162 | -0.152 | -0.11 | 0.093 | -0.00311
CGCTATC | 0.0211 | 0.0446 | 0.169 | 0.046 | -0.0243 | -0.406 | 0.0212 | -0.0995 | 0.0236 | 0.0337
TCGAAGT | -0.172 | -0.122 | 0.071 | -0.237 | 0.0449 | -0.588 | -0.109 | -0.078 | -0.137 | -0.0613
GTAAGGG | 0.00202 | 0.0483 | 0.228 | 0.594 | 0.0254 | 0.179 | 0.119 | -0.0234 | 0.00425 | -0.00578
GTCATAG | 0.0824 | 0.173 | 0.219 | 0.826 | 0.101 | 1.35 | 0.237 | 0.141 | -0.00753 | 0.0731
TGTCAGT | 0.0655 | 0.0695 | -0.00728 | 0.105 | -0.00892 | -0.233 | -0.477 | -0.0481 | 0.0658 | 0.0135
TAAGAAG | 0.146 | 0.0142 | -0.682 | -0.678 | 0.155 | -1.02 | 0.26 | 0.104 | 0.0811 | 0.00716
GCCTCCT | -0.187 | -0.106 | 0.0142 | -0.953 | -0.00314 | 0.223 | -0.701 | -0.0804 | -0.143 | -0.082
ACATGGC | -0.0615 | -0.0286 | -0.825 | -0.556 | 0.0115 | -1.17 | 0.0956 | -0.0253 | 0.0802 | -0.0838
CTTAGCG | -0.0895 | -0.036 | -0.882 | 0.293 | -0.0638 | -0.833 | 0.0601 | -0.101 | -0.0672 | -0.184
CTAAACG | -0.0362 | -0.125 | -0.868 | -0.174 | -0.0198 | -1.05 | 0.235 | -0.102 | -0.127 | -0.0354
ATTCGAA | -0.00171 | -0.0884 | -0.219 | -0.516 | -0.0618 | -1.06 | -0.11 | -0.0485 | -0.0329 | -0.13
CAAAACC | -0.0119 | 0.168 | -0.0829 | -1.18 | 0.0202 | -0.691 | -0.349 | 0.118 | -0.0275 | 0.0899
TCAACGG | 0.139 | 0.0958 | 0.659 | 1.58 | 0.0938 | 2.07 | 0.203 | 0.171 | -0.0757 | 0.148
ACAGTAG | 0.0958 | -0.058 | -0.626 | -0.00653 | 0.153 | -1.08 | 0.31 | 0.152 | 0.19 | 0.0374
AGGAAAG | -0.0655 | -0.00533 | -0.434 | -0.296 | -0.0851 | -0.863 | 0.0892 | -0.00911 | -0.00127 | 0.0188
TCCGTAC | 0.0425 | 0.0182 | 0.216 | -0.314 | 0.00866 | 0.000705 | 0.056 | -0.14 | 0.0117 | 0.0676
CCTGAGC | -0.0401 | -0.103 | -0.164 | -0.409 | 0.0537 | -0.807 | 0.102 | -0.163 | 0.0115 | 0.0737
ACGCGTT | 0.0805 | 0.0937 | -0.594 | -0.951 | 0.272 | -0.876 | -0.0055 | 0.0819 | 0.0988 | 0.0207
CACCGTA | 0.0429 | -0.0747 | -0.215 | -1.75 | 0.0327 | -0.834 | -0.384 | -0.257 | -0.0974 | -0.14
ACCTCCA | -0.0303 | 0.0695 | -0.136 | -0.519 | 0.00885 | 0.335 | -0.221 | 0.0597 | -0.122 | 0.0674
TGGTCAA | 0.033 | 0.234 | 0.664 | 1.18 | 0.0611 | 1.53 | 0.158 | 0.0588 | 0.143 | 0.122
GGTGGAA | 0.0921 | 0.0132 | 0.513 | 1.24 | 0.125 | 1.93 | 0.154 | 0.0209 | -0.0137 | 0.208
TGAACTC | 0.00476 | 0.119 | 0.222 | 0.432 | -0.0088 | 0.812 | -0.0377 | -0.0379 | 0.0912 | 0.148
ACGCCTG | -0.059 | 0.136 | -0.0243 | 0.301 | 0.0648 | 0.313 | 0.0945 | 0.0697 | 0.0252 | 0.0889
CTCGGCC | 0.00976 | -0.0457 | 0.0151 | 0.0429 | 0.143 | -0.521 | 0.132 | 0.0669 | -0.000935 | 0.0402
GGATTTA | 0.0313 | 0.0236 | 0.558 | 0.98 | 0.0233 | 1.86 | 0.177 | 0.0886 | 0.0543 | 0.0948
